# Measurements: the supplement of paper PMC3334620
# In all, about 33,000 sequences were measured (“E-score (-0.5 to 0.5)”: median about -0.021, highest 2% from about 0.32 on). The list shows a part of the results.
# Biological target: T1, Zap1 (UniProt P47043)
# T1 sequence: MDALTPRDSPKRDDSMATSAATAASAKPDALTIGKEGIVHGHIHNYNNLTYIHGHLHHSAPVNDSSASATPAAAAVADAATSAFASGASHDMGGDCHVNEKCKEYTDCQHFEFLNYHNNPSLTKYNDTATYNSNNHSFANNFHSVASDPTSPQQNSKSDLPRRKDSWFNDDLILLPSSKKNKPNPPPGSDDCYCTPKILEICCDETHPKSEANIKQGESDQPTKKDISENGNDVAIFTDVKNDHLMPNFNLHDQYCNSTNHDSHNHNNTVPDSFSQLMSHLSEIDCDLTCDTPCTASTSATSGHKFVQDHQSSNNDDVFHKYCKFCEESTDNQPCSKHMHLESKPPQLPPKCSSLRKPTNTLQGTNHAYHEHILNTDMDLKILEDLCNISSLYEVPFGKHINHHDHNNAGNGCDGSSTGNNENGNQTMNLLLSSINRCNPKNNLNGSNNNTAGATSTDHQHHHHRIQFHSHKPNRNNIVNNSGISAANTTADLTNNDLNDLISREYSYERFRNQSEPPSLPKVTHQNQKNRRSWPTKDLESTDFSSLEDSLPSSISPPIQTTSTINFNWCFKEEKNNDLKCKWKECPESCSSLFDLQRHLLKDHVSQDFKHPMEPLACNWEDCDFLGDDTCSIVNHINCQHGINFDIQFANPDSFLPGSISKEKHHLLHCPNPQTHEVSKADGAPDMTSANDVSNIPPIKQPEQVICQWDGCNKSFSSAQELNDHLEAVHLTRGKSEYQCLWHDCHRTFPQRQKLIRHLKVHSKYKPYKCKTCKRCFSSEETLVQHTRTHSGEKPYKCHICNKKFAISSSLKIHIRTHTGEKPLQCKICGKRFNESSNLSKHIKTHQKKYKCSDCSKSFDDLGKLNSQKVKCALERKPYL
# Assay: PBM E-score (8-mer binding enrichment) (E-score (-0.5 to 0.5)); higher = stronger / more preferred TF binding; most listed sequences are background and not binding sites
# Conditions: protein concentration: 200 nM; construct: GST-full length
# How it was run: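 Masliner-normalised scans of fluorescent anti-GST signal were the basis for scoring. That signal came from GST-tagged yeast transcription factors applied at about 100-200 nM to double-stranded universal all-10-mer Agilent arrays on fresh or once-stripped slides. Each ungapped eight-base word, pooled with its reverse complement, received an E-score from the Universal PBM Analysis Suite.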
row,Sequence,PBM E-score
1,CTCACCTA,0.133
2,CACGTTTA,-0.0258
3,GGTGTGCA,-0.0367
4,GTGAACCA,0.0479
5,TACTCCTA,-0.112
6,AGTAGGTC,-0.107
7,CCAGGTGC,0.0122
8,AGGTCCCA,-7e-05
9,CGGGGGAA,-0.168
10,AGTAGGAA,-0.163
11,AGCTTAGG,-0.11
12,CCGGTCCA,-0.201
13,CAGGTCCG,0.00563
14,ACCTAGAC,-0.0183
15,AGAACTGC,-0.239
16,AGATCACG,-0.00601
17,GACAGTTA,0.00556
18,TCCGCGAA,0.05
19,AAATAAAG,0.2
20,ATCACGAA,0.101
21,CGACTAAA,-0.0228
22,AGCACAGG,-0.0671
23,TCACTAAA,0.169
24,AAGACAGG,0.00578
25,ACCTCGAT,0.245

row,Sequence,PBM E-score
1,GAGAGTCC,-0.283
2,CTTTATGA,0.0463
3,AATTGTAG,0.0991
4,CCGCGAAG,0.122
5,AAAAGCGG,-0.0123
6,AGTGTCCA,0.172
7,CGACGCCA,-0.0251
8,ACGGAAGT,-0.128
9,CGGATGTC,0.149
10,ACATCAGG,-0.0455
11,CCGTCACC,0.203
12,AGAGGGCT,-0.237
13,ATGCCATA,-0.111
14,AACGTTCT,0.0697
15,ATTTAGGG,0.141
16,ACGCATTA,0.12
17,AGGATACT,-0.165
18,AGAATAGA,-0.0048
19,ACCAGCAT,0.0571
20,TCAGTTCA,-0.0962
21,ATTGTTTG,0.115
22,AACCCTGT,0.419
23,GTGTGAAC,-0.0337
24,TGGGCACA,-0.0634
25,ATGGGCAA,-0.0488

row,Sequence,PBM E-score
1,ACTTGCAA,0.147
2,AAGGTAAC,0.432
3,AGCCCTTG,-0.0802
4,GATTGCTA,-0.162
5,GGGAGAAC,-0.0658
6,TAGATCGA,-0.154
7,AAAAAAGC,0.0685
8,CCGATGGC,-0.168
9,CACTATCC,-0.0967
10,GATCGGCA,-0.288
11,TCGACAGA,-0.0777
12,CGCGACCC,0.299
13,TGCTAAAA,0.101
14,CAATTCTG,-0.217
15,GCTGAATA,0.0722
16,AATGGTCA,0.303
17,ACAAAAAT,0.234
18,AACACCAT,0.0808
19,ATCTTAGC,-0.152
20,AGAAGTGA,-0.0659
21,GCATTAAA,0.103
22,AACGCAAA,0.0634
23,ATAACGCG,0.0626
24,CGGCGTAC,-0.249
25,ACTACTCG,0.0619

row,Sequence,PBM E-score
1,GATAGCGC,-0.175
2,AGATGGCC,0.122
3,CCGAAGGC,-0.109
4,GGATGAAA,0.0693
5,CATGGAAC,0.0818
6,CTTCTAGC,-0.243
7,CCACTGCC,-0.129
8,CTCAAGAA,0.0854
9,AAGCCGCC,-0.381
10,ACTAAGGG,0.156
11,AGAGTACC,0.191
12,AGCAGTTA,0.0176
13,CTTCTCTA,-0.174
14,AATACCTC,0.296
15,CATAGTCC,-0.0604
16,TAATTTAA,0.183
17,GATCTGCA,-0.162
18,AGAACCAT,0.184
19,ACGCAAGC,-0.0912
20,TCTTCTAA,0.0973
21,ATGATCAC,0.172
22,GGTCATTA,0.321
23,AACATATT,0.0352
24,ACCCGCAG,0.225
25,AAACCTAC,0.194

row,Sequence,PBM E-score
1,CACCGTGA,0.0105
2,ACGCCGCT,-0.0905
3,CCCATGGA,0.208
4,CATTGAAA,0.174
5,GCCGCTAA,0.152
6,ATTCATGG,0.0815
7,AGCTGTAC,-0.151
8,CAATTCTA,0.11
9,ACCTGCAA,0.057
10,ATACATGA,-0.0713
11,CGCCAAGA,-0.128
12,AATAGGTA,0.314
13,AAGTTCTA,-0.0519
14,CGACCTTA,0.207
15,AGATGTGC,-0.213
16,AAAACCAT,0.283
17,CGGTGGCA,-0.312
18,TTATTGAA,0.158
19,GCACCACA,-0.153
20,TAACGAGA,-0.0403
21,AGCACCAG,-0.0624
22,CCGCCTCC,-0.252
23,ACGCCAGG,0.019
24,GGAATGCC,-0.00306
25,AACTTACT,-0.0256

row,Sequence,PBM E-score
1,TCATCTCA,-0.0211
2,CCGATGTC,-0.0474
3,CAGCTAAC,-0.0775
4,ACACTGGG,-0.14
5,ATATCTTA,0.106
6,GCCGGCAA,-0.00777
7,ACCTAGGA,0.159
8,AAAGGGAG,-0.17
9,CTATTGTA,0.062
10,CGCTTGTA,-0.0149
11,GAGTCACC,0.0467
12,ATAATTTA,0.18
13,AGAAGACT,-0.205
14,ACGTCCAG,-0.256
15,CATTTGCG,-0.0445
16,AGTGCGAA,-0.172
17,CTAGCCAA,0.00097
18,ATCCCTCA,-0.0235
19,AATACTCT,0.11
20,TACGTTAA,0.11
21,AGAATCTC,-0.0812
22,CGTACCCA,-0.0471
23,GCTCATTA,-0.0205
24,GTTGGAAA,-0.045
25,ATTACGGC,-0.0589

row,Sequence,PBM E-score
1,ATAGGAAC,0.0152
2,GGTATACA,0.125
3,CCGGCCCG,-0.0444
4,AAACAGAG,-0.0876
5,ATACCTTG,0.256
6,AGGCATAT,-0.184
7,GGGTTCCA,0.113
8,ACTGCAGG,-0.025
9,GAGCCCTC,-0.216
10,CTTCAAGC,-0.0804
11,GTGCTATA,-0.0354
12,CAGAGTTA,0.0742
13,CGACCGTA,-0.0373
14,CCACCCGA,0.224
15,ACGATTGA,-0.0728
16,ATAAGCCC,-0.193
17,GGATACGA,-0.0671
18,ATGATAAA,0.197
19,CATCTAGG,0.0237
20,CCTAATAA,0.163
21,CTTCGTAA,-0.0447
22,CCCCAAAA,0.198
